The full ranking holds about 4,000 sequences; the median of “arbitrary fluorescence units” is about 830, and the highest 2% start at about 6,500. The list lacks most of the strong results.
Target: RUNX1 (UniProt Q01196)
Test: RUNX1 binding intensity (PBM fluorescence), RUNX1 alone (arbitrary fluorescence units); higher = stronger binding
Conditions: RUNX1 concentration 2 nM; ETS1 concentration 0 nM
Description: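 gcPBM on 36-bp genomic-derived probes (partner site mutated) containing one RUNX1 site and no ETS1 site. Recombinant human RUNX1 (2 nM) was incubated alone or with ETS1 (25 nM) and detected by anti-RUNX1 antibody fluorescence. Values are medians over 4 replicate spots (not normalised). The probes sit in constant array flanks that are not printed.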
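Note: Full-length recombinant human RUNX1 bound to double-stranded DNA microarray spots, detected with an Alexa488-labelled secondary antibody after the anti-RUNX1 primary, read as scanned spot fluorescence.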

Sequence of UniProt Q01196 (Q01196 whole entry): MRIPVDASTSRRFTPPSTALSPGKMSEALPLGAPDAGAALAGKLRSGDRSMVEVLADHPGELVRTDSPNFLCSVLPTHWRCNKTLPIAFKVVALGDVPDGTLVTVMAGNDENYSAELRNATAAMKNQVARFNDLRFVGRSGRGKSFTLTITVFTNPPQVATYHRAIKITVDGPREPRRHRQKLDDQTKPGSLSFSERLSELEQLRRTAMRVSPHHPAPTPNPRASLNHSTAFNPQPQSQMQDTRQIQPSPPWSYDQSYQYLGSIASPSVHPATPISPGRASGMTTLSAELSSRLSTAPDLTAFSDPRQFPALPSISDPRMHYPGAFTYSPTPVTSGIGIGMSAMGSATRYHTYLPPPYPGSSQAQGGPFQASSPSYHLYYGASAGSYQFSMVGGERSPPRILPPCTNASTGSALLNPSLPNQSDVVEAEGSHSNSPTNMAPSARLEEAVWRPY

Sequence | RUNX1 binding intensity
TGCTGCACCGCGACCTCAGCTACTGCCTGCTCAGGT | 739
GGGGTCAGCAAATGGGTGTGCCGCGGGTAAGGCGCT | 682
CTCTGCAGACAGTAAAGCTAGGTGTGGGTGTACTGT | 768
ATATTTTTGATTCCTCCTGTGGTGGCACCTAGCAGC | 1020
ACCAGCTGCGGCTGGGTGCAGCTGAAGGTGTCTACG | 722
ACATGAAGAGATATTATATCTCCCTGCGGTTGGTTT | 965
CCTCTTATACCACACTGTGGGAATCAGCAAGGGTGC | 948
TGAGTTTTGTCTCCGATTCACCACAGAAGATACTTT | 930
TGCAGCTATGGCTGGAAGCCTGTGGGTGTGGGAGGA | 691
GTCGTCCCGAAAACCGGGATGCGGTTATCAGAGCGA | 1350
AGCGGCCGAAGGAATTGACGTTTGCGGCAGTAAGGC | 1230
TATCAGCCTCCGACGTGCCCCGCGGTATCTGGACTA | 837
GGTTTTGCGCCCACAGCCGCCGAAAGTGGCTCCGTG | 770
TCCCTCCTTGCGCTCTGGTTTTGTGGTTGCTTGCTG | 1120
AGACAAAGTGGTTGTAAGCCACCTCCTCCACACCCT | 826
TTCAGGCGGTAAAGAACAGACCTGCAGGAGGAGATA | 723
TGCGATGCCGCAGTGGCTCAGTGCTCCCTGGCCGAG | 673
TACAGCCAGGCAATGGGGAGGGTGCTGCGGGCGGCA | 729
CCCGCGGTGCTCGCCGCTGAGAGCTTTCGGGCCACG | 720
AAGCACTTGTGGTTGGCACCAGCTTTTCATGTGCTC | 1120
TGGGCACGGGAGCAAGAGGCTGGGTGGTAAACAGGA | 743

Sequence | RUNX1 binding intensity
GCGCAGCCCGTCTCCCCTCTTGGCGGTTGCGAACTT | 847
CTCAAGACCGCTTACGGGAGCCTCTCGGCTTACGTC | 735
AGCTAAACCCAGTGCCGGTGCTGTGGGGAGCTCAGA | 711
AGTTACAGAACCACACTGGGGCCACCTCCTCTCCAG | 899
GACCTGGGTTTCATGTCTGTACATCGCGGTTCCTAC | 933
AGCAAAAAGTTCCAGGGAAGCCGAGACCGCGACCTT | 732
GGCGGGCCCTCCCGCAGGCCTTCATGTTTATGCGTC | 755
ATTTACGTTTCAAACCACCCACTTCCAGTTTTTCAG | 1270
GGAAAGGCAGCGGTGGCAGAGGCTGTGCTGGGGGAG | 701
CGGGGCATGTCGGACGCTGTGGTCCTGAAGGCCTGG | 684
TGTAATTTGAGGTTAGCACAACACAGGCAGTCCTGC | 938
ACGTGACCGCGTGGGCGCAGTCCCAGACAGTAAACG | 869
TGCCACATGCTGCCCCTCCCCAGGTCTAACCACCAA | 1090
AGTAGAGGAGGGAGTTAAATGTGGTTTTCTGGGTGG | 845
GCAGAAGGATTTGCTGTTTCAGGCAACCACAGCGAC | 767
AACACCCTGTGTAAAGAGAATTGAATGTGGTTTTCT | 771
TGTGTCAAGCCGCAGGCAGCGATTCTGGACTCTGGG | 777
GCATGGCGGTTCTTGGCGTGCGAACCCCTTCGGCCC | 808
CCGGGACATGAAGAGGCTGGGGACCGCGGCGAAGGT | 760
CTAAGAATCATCGTGTGTAACAACACCCACAGTTAG | 783
AAAAACTACATTGCCCATGAGCACCCACAGGCGTGC | 795

Sequence | RUNX1 binding intensity
GGCTACCGGCACCCGCAGTGTCCGGCAACGCAGTCC | 685
CACCCGAACTGAAACACCTGCGGCTGAGGGGAGGGG | 1030
GCATGCGGCTTGCTCGGTACTCAGCTGACTTGCTGT | 773
AAGCCCACAGCCCGGCCCCGGCCCCCGTATGTGGGG | 741
CGGGACTGCCTGTCTTCCCTGTTGCGGAGCTCTGAA | 737
GGGGCGGTTACAGAACGGGTAACTCAGAATGATTCA | 856
GGCGTTGTGGGCCGCGGCGCGATTCCCCGGCTCCGT | 709
TCCGCGCGGTCGGCCGCGTTGTAGGGGACGGAGGTG | 770
TGATTAGGAAACCACAGACTACCCGGGAATCAACTT | 2710
CAGGAACCGTAAGCCACAGGCCTTCATGCCCAGCCA | 803
TCTGAGATAACCGCTTGGTTCCAGTGTCCCGTTTTG | 859
CGGCAGCTGCACCGCAGGGACATCTCCCGCGAGAGC | 736
CTCCGCGCGGCCGCAGAGACTCCTGGGAATTGTGGA | 769
TCGGGGAAAGACCGCTTCAGGTGCTCCCGTCGCTCC | 782
GGTGAGCGGTGGTGGTTTATTCTTCTGTGGAGTTAA | 1220
ACACCTCAGCAAGTGGCAGAGACCACAACAAGTCAG | 952
CTGCAACCTCAAACCAGCTCCCAGGGCCAGCAAGGT | 900
ACAAAACAAACACCTCCCCCAAACCGCCAAACTACA | 1400
CCGCCCGCAGGGGCTGCCGGAGGCTTTTACTGTTCC | 812
ACTGCCGCAGCCCAGGGGCCCGAGAAGGCAATCGCT | 835
